Measured values as given in PubChem BioAssay AID463173 (ICCB-Longwood Screening Facility, Harvard Medical School, 2010).
Among all 52,000 compounds or so, about 4,300 (8.3%) were called active. Cut-off read from the data, not from the text of the source: active = survival mostly below about 52% (no sharp cut-off); inactive = mostly above about 56%. The list shows a part of the results.

What follows are compounds tested on DeltatarO mutant (assay: S. aureus survival, RN4220 and DeltatarO strains – OD600, teichoic acid synthesis inhibitors, primary screen (AID 463173)). Settings: S. aureus RN4220 wild type/DeltatarO growth, OD600, 18 h, active compounds read low, screened at 18.75 µg/mL (by protocol).
In the case of CCN(CC)CCNC(=O)c1[nH]c2ccccc2c1Sc1ccc(Cl)cc1, the survival is reported as inactive: 45%.
In the case of CN(C(=O)c1ccc2c(c1)N(Cc1ccccc1F)C(=O)c1ccccc1S2(=O)=O)C1CCCCC1, the survival is reported as inactive: 105%.
With COc1ccc(NC(=O)C(NC(=O)/C=C\c2ccc3c(c2)OCO3)c2ccc(OC)cc2)cc1 (stereo not drawn) the survival was inactive: 61%.
With COc1ccc(NC(=O)C(=O)NCC(c2cccnc2)N2CCc3ccccc3C2)cc1 (stereo not drawn) the survival was inactive: 69%.
For CCOC(=O)C1CCCN(Cc2cn3c(-c4ccc(Br)cc4)nnc3s2)C1 (stereo not drawn), the survival was inactive: 69%.
CCOc1ccc(NC(=O)Cc2ccc(-n3c(C)nc4cccnc43)cc2)cc1 was tested, and the survival was inactive: 100%.
COc1ccc(C(=O)NNc2ncnc3c2cnn3-c2ccccc2)cc1 was tested, and the survival was inactive: 92%.
In the case of CC(=O)N1CCC(N(Cc2ccco2)C(=O)Nc2ccc(Br)cc2F)CC1, the survival is reported as inactive: 124%.
CCOc1ccc(NC(=O)[C@H](Cc2ccccc2)N2Cc3ccccc3C2=O)cc1 was tested, and the survival was inactive: 73%.
For CCN(CC)c1cc2c(cc1F)c(=O)c(S(=O)(=O)c1ccc(C)cc1)cn2Cc1ccc(F)cc1, the survival was inactive: 94%.
With CCCSc1nc2c(c(=O)[nH]1)C(c1ccc(F)cc1F)CC(=O)N2 (stereo not drawn) the survival was inactive: 43%.
O=C(Cn1ncc2ccsc2c1=O)N1CCN(c2ccccc2)CC1 was tested, and the survival was inactive: 88%.
CCCN1CCN(c2ncnc3sc(C(=O)Nc4cccc(Cl)c4C)c(C)c23)CC1 was tested, and the survival was inactive: 95%.
With O=C(NCCc1ccc(Cl)cc1)c1nc(-c2cccc(F)c2)n2c1CCCCC2 the survival was inactive: 125%.
COc1ccc(CCN2CC(O)=C(c3nc4ccccc4c(=O)[nH]3)C2=N)cc1OC was tested, and the survival was inactive: 74%.
Cc1cc2n(n1)CCC(=O)N2Cc1ccc(C(=O)Nc2ccc(Br)c(C)c2)cc1 was tested, and the survival was inactive: 76%.
In the case of COC(=O)c1c(NC(=O)COc2c(C)ccc(C)c2C)sc2c1CCC(C)C2 (stereo not drawn), the survival is reported as active: 22%.
For CC1=C(C(=O)Nc2cccnc2)C(c2ccc(Cl)cc2)n2nc(SCc3ccccc3)nc2N1 (stereo not drawn), the survival was inactive: 64%.
Cc1ccc(-n2nc(C(=O)Nc3cccc(C#N)c3)c3c4ccccc4n(C)c3c2=O)cc1 was tested, and the survival was inactive: 129%.
For Cc1ccccc1NC(=O)CSc1nc2ccccc2c2nc(CCn3c(C)nc4ccccc43)nn12, the survival was inactive: 91%.
For Cc1ccc(CNC(=O)c2cn(C)c3ccc(S(=O)(=O)N4CCOCC4)cc3c2=O)cc1, the survival was inactive: 127%.
In the case of COc1ccccc1N1CCN(C(=O)c2cc3c(=O)oc4ccc(C)cc4c3s2)CC1, the survival is reported as inactive: 106%.
With COc1ccc(OC)c(S(=O)(=O)Nc2cccc(-c3ccc(N4CCCCCC4)nn3)c2)c1 the survival was inactive: 70%.
With CCOc1ccc(-c2nc(CNC(=O)Nc3ccccc3)c(C)o2)cc1 the survival was inactive: 80%.
N#CCCCn1c(O)c(N=NC(=O)C2COc3ccccc3O2)c2ccccc21 (stereo not drawn) was tested, and the survival was inactive: 62%.
For COc1ccc(NCc2cc3ccc(OC)cc3n(CC(=O)Nc3cccc(OC)c3)c2=O)cc1, the survival was inactive: 94%.
In the case of CCOC(=O)c1c(C)c(C(=O)NCc2ccc(Cl)cc2)c(C)n1CC, the survival is reported as inactive: 104%.
For CCC1CCc2nc3sc(C(=O)Nc4ccc(F)c(F)c4)c(N)c3cc2C1 (stereo not drawn), the survival was inactive: 76%.
COc1ccc(NC(=O)CSc2nc3c(c(=O)[nH]2)CCC3)cc1 was tested, and the survival was inactive: 55%.
Cn1c(-c2ccc(S(=O)(=O)N3CCCC3)cc2)csc1=Nc1ccc(Cl)c(Cl)c1 was tested, and the survival was inactive: 78%.
With CC(C)c1ccccc1Oc1c(C(F)(F)F)oc2c(CN3CCN(C)CC3)c(O)ccc2c1=O the survival was inactive: 49%.
With Brc1ccc(CN2CCc3nc(N4CCN(c5ncccn5)CC4)ncc3C2)cc1 the survival was inactive: 65%.
In the case of O=C(Cn1c(=O)n(CCc2ccccc2)c(=O)c2c3c(sc21)CCCC3)Nc1ccc(F)c(F)c1, the survival is reported as inactive: 84%.
CCCc1nnc(NC(=O)Cc2coc3ccc(C)cc23)s1 was tested, and the survival was inactive: 72%.
For CCOc1ccccc1Nc1sc(C(=O)c2ccc(Cl)cc2)c(N)c1C(=O)NCCc1ccccc1, the survival was inactive: 94%.
In the case of Cc1ccccc1NC(=O)c1c(NC(=O)C(F)(F)F)sc2c1CCCCC2, the survival is reported as active: -3%.
For Cn1nnc2cc(C(=O)Nc3cccnc3)ccc21, the survival was inactive: 81%.
In the case of CC1Cc2ccccc2N1C(=O)CSc1nccc(=O)[nH]1 (stereo not drawn), the survival is reported as inactive: 81%.
COc1cc(NC(=O)c2nn(-c3ccc(F)cc3)c(=O)n(C)c2=O)cc(OC)c1OC was tested, and the survival was inactive: 125%.
For CCn1c(C(=O)N2CCC(C(=O)NCCCOC)CC2)cc2sccc21, the survival was inactive: 82%.
With O=C(COCc1cc(-c2cccs2)on1)NCc1cccc(Cl)c1 the survival was inactive: 117%.
In the case of Cc1cc(C)c(/C=C/c2onc(C)c2S(=O)(=O)N2CCC(C(=O)Nc3ccc(Cl)cc3C)CC2)c(C)c1, the survival is reported as inactive: 94%.
Cc1nc2ccn(Cc3ccccc3)c(=O)c2cc1C(=O)NCc1ccccc1F was tested, and the survival was inactive: 80%.
With COc1ccc(NC(=O)Nc2cccc(-c3cn4cccnc4n3)c2)cc1 the survival was inactive: 86%.
With CC1CCCN(C(=O)CSc2nnc(COc3ccc(Cl)cc3)n2C)C1 (stereo not drawn) the survival was inactive: 99%.
CC1(C)Oc2ccc(C(=O)N3CCCC3)cc2N(CC(=O)N2CCCCC2)C1=O was tested, and the survival was inactive: 81%.
With CC1CC(=O)N(CC(=O)Nc2ccc(F)cc2F)c2ccccc2S1 (stereo not drawn) the survival was inactive: 95%.
For O=C(CCCn1ccc2cc(S(=O)(=O)N3CCCC3)ccc21)NCc1ccc(Cl)cc1, the survival was inactive: 96%.
Cn1c(=O)[nH]c(=O)c2c1nc(NCCO)n2CC(O)COc1ccccc1 (stereo not drawn) was tested, and the survival was inactive: 165%.
CCOc1ccc(/C=C/c2nc(C#N)c(Nc3ccc(OCC)cc3)o2)cc1 was tested, and the survival was inactive: 84%.
In the case of Cc1c(-c2ccccc2)c(=O)oc2c(CN3CCCC3)c(O)ccc12, the survival is reported as inactive: 97%.
CCc1ccc(C2CC(=O)NC(NC(=O)c3ccc(C(C)(C)C)cc3)=N2)cc1 (stereo not drawn) was tested, and the survival was inactive: 53%.
With CCc1cccc(NC(=O)Cn2c(=O)n(CCC(=O)NCC3CCCO3)c(=O)c3cc(OC)c(OC)cc32)c1 (stereo not drawn) the survival was inactive: 62%.
With Cc1ccc(-c2nc3ncccc3o2)cc1NC(=O)c1ccccc1Br the survival was inactive: 53%.
For O=C(NCCC1=CCCCC1)C1CC(O)CN1C(=O)Nc1ccccc1 (stereo not drawn), the survival was inactive: 87%.
For Cc1ccc(CNC(=O)c2cc3c(s2)-c2ccc(Cl)cc2SC3)cc1, the survival was inactive: 69%.
For Cc1ccc(CSC2=Nc3ccccc3C3=NC(CC(=O)NCc4cccs4)C(=O)N23)cc1 (stereo not drawn), the survival was inactive: 80%.
In the case of CCOc1ccc(NC(=O)Cn2c(=O)n(Cc3ccc(C(=O)NCc4ccc(C)cc4)cc3)c(=O)c3ccccc32)cc1, the survival is reported as inactive: 75%.
With COc1cccc(CNC(=O)CN2C(=O)COc3ccc(S(=O)(=O)N4CCCCCC4)cc32)c1 the survival was inactive: 82%.
In the case of CC1CCCCN1Cc1c(O)ccc2c(=O)c(-c3ccccc3)coc12 (stereo not drawn), the survival is reported as inactive: 54%.
With CCOC(=O)C1=C(CN2CCCCC2)NC(=O)NC1c1ccc(C)cc1 (stereo not drawn) the survival was inactive: 85%.
COc1cccc(CNS(=O)(=O)c2ccc(N3CCCCS3(=O)=O)cc2)c1 was tested, and the survival was inactive: 84%.
For Cc1ccc(CNC(=O)c2sc3nc(-c4ccc(F)cc4)ccc3c2N)cc1, the survival was inactive: 131%.
For CCOc1ccc(C(CC(=O)Nc2cc(C)c(Cl)cc2OC)N2Cc3ccccc3C2=O)cc1OC (stereo not drawn), the survival was inactive: 70%.
In the case of COc1ccc(C(=O)Nc2nnc(S(=O)(=O)N3CCC(C)CC3)s2)cc1OC, the survival is reported as inactive: 79%.
For CCN(C(=O)C1CCCN(c2ncnc3onc(-c4ccc(F)cc4)c23)C1)c1ccccc1 (stereo not drawn), the survival was inactive: 104%.
In the case of O=C(NC1CCCC1)c1cc(-c2ccccc2)on1, the survival is reported as inactive: 90%.
With CC(=O)N1CCN(c2ccccc2N)CC1 the survival was inactive: 93%.
In the case of O=C(NCC1CCCO1)c1c[nH]c2ccc(S(=O)(=O)Nc3ccc(F)cc3F)cc2c1=O (stereo not drawn), the survival is reported as inactive: 85%.
In the case of CCOc1ccc(NC(=O)NCCn2nnc3cc(S(=O)(=O)N(C)C)ccc32)cc1, the survival is reported as inactive: 74%.
For CC(C)(C)c1ccc(-c2nc(S(=O)(=O)c3ccccc3)c(N3CCOCC3)o2)cc1, the survival was active: 37%.
With CCNc1nc(NC(C)C)nc(OCCNC(=O)COc2ccc(Cl)cc2C)n1 the survival was inactive: 60%.
For Cc1ccc(N2CC(NC(=O)c3ccco3)CC2=O)cc1C (stereo not drawn), the survival was inactive: 101%.
With CC(C)COc1ccc(-c2nonc2NC(=O)c2ccc(F)cc2)cc1 the survival was inactive: 86%.
In the case of O=C(NCCc1ccccc1)c1ccc(CSc2nc3ccncc3n2Cc2ccccc2F)cc1, the survival is reported as inactive: 76%.
CCN(C(=O)c1nn(-c2ccc(C)cc2)c(=O)c2c1c1ccccc1n2C)c1ccc(F)cc1 was tested, and the survival was inactive: 84%.
In the case of O=c1[nH]c(CSc2ncc(-c3ccc(F)cc3)n2Cc2ccco2)nc2ccccc12, the survival is reported as inactive: 68%.
For O=C(Nc1nnc(S(=O)(=O)N2CCCC2)s1)c1ccccc1F, the survival was active: 28%.
With CCOC(=O)c1cnc2c(C)cc(Cl)cc2c1NCCc1ccc(OC)c(OC)c1 the survival was active: 31%.
With O=C(Cn1ncc2c([nH]c3ccccc32)c1=O)NCc1cccc(Cl)c1 the survival was active: 20%.
In the case of COc1ccc(NC(=O)C(C)n2c(C)c3cnn(-c4ccccc4)c(=O)c3c2C)cc1Cl (stereo not drawn), the survival is reported as inactive: 81%.
With CCOC(=O)c1cc(-c2ccc(F)cc2)n(CCC(=O)NCc2ccccc2OC)c1C the survival was active: 52%.
With O=C(O)c1ccc(-c2nc3ccccc3[nH]2)cc1 the survival was inactive: 86%.
For COc1ccc(Cn2ccc3nc(C)c(C(=O)NCc4ccc(OC)cc4OC)cc3c2=O)cc1, the survival was active: 25%.
In the case of COC(=O)c1ccccc1NC(=O)CCc1c(C)nc2c(c(C)nn2-c2ccccc2)c1C, the survival is reported as inactive: 101%.
For COc1ccc(-c2cc(C(=O)N3CCN(c4ccc(F)cc4)CC3)no2)cc1OC, the survival was inactive: 57%.
O=C(NC12CC3CC(CC(C3)C1)C2)N1CC2Cc3cccc(=O)n3C(C2)C1 (stereo not drawn) was tested, and the survival was inactive: 88%.
For COc1ccc(-n2nnc(-c3nc(-c4ccccc4C)no3)c2N)cc1Cl, the survival was inactive: 104%.
